Test results published in the supplement of paper PMC12340641.
Whole data set: some 1,000 compounds, median “relative growth in counter assay (no AraC = 100%, AraC + DMSO = 0%)” near -1.1, cut for the highest 2% near 20. This is one part of the list.

test system: HEK293FT dCK*-only; assay: relative growth in counter assay (no AraC = 100%, AraC + DMSO = 0%); higher = more growth rescue independent of IKZF1; conditions: compound concentration: 5 uM; AraC concentration: 0.3 uM; overnight pretreatment + 4 days AraC
Description: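 Growth recovery screen of the molecular-glue-like (Specs) library. HEK293FT cells expressing a dCK*-IKZF1 fusion (primary) or dCK* alone (counter) were pretreated overnight with compound at 5 uM, then given 0.3 uM AraC for 4 days. Hoechst nuclei were counted by imaging. Primary: normalised to pomalidomide (100%) and DMSO (0%), mean of 2 replicates. Counter: normalised to no-AraC (100%) and AraC+DMSO (0%), single replicate.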

Row | Structure (SMILES) | relative growth in counter assay [%]
1 | CC(C)N(C(=O)CN1CCOC(c2cccc(Nc3nccs3)n2)C1)C1CCCCC1 (configuration not stated) | 2.51
2 | Cc1ccnc(NS(=O)(=O)c2ccc(NC(=O)CCCOc3ccccc3)cc2)n1 | 3.33
3 | Cc1cnc(Nc2cccc(C3CN(C(=O)C4CC=CCC4)CCO3)n2)s1 (configuration not stated) | -15.7
4 | COC(=O)C(c1cccc(Nc2ncc(C)s2)n1)C1CCN(C(=O)C2CCCCC2)CC1 (configuration not stated) | 4.86
5 | Cc1cc(NS(=O)(=O)c2ccc(NC(=O)c3ccccc3Cl)cc2)nc(C)n1 | 5.37
6 | O=[N+]([O-])c1ccc(S(=O)(=O)Nc2ccccn2)cc1 | -0.83
7 | CC(=O)N1CCC(c2csc(Nc3ncccc3C)n2)CC1 | -0.11
8 | CC(C)C(=O)N1CCCC1c1csc(Nc2ccccn2)n1 (configuration not stated) | 6.43
9 | COCC(=O)N1CCOC(c2cccc(Nc3nc(C)cs3)n2)C1 (configuration not stated) | 2.47
10 | Cc1nc(Nc2cccc(C3CCCN3C(=O)COc3ccc(F)cc3F)n2)sc1C (configuration not stated) | -2.81
11 | CC(C)c1ccc(OCC(=O)Nc2ccc(S(=O)(=O)Nc3ccccn3)cc2)cc1 | 4.55
12 | Cc1ccc(OCC(=O)Nc2ccc(S(=O)(=O)Nc3ccccn3)cc2)cc1 | 7.96
13 | O=C(CSc1nnc2c(n1)[nH]c1ccc(F)cc12)Nc1ccc(F)cc1 | 10.9
14 | Cc1ccnc(NS(=O)(=O)c2ccc(NC(=O)c3ccccc3C)cc2)n1 | -1.56
15 | CN(C)CC1(c2cccc(Nc3ncc(-c4ccccc4)s3)n2)CCN(C(=O)C(C)(C)N)CC1 | -24.6
16 | COc1ccc(N2CC(C(=O)Nc3ccc(S(=O)(=O)Nc4nc(C)cc(C)n4)cc3)CC2=O)cc1 (configuration not stated) | 7.32
17 | Cc1cnc(Nc2cccc(C3CCN(CC(=O)Nc4ccccc4F)CC3)n2)s1 | -9.54
18 | Cc1cc(C)nc(NS(=O)(=O)c2ccc(Nc3nc(-c4ccc(Cl)cc4)cs3)cc2)n1 | -7.62
19 | O=C(C1CCCCC1)N1CCC(Cc2cccc(Nc3nccs3)n2)CC1 | 18
20 | Cn1nccc1/C=C/C(=O)N1CCC(c2cc3ccccc3c(Nc3nccs3)n2)CC1 | -21.2
21 | Cc1cc(C)nc(NS(=O)(=O)c2ccc(NC(=O)CSc3nc4c(cc3C#N)CCCCC4)cc2)n1 | 5.78

Row | Structure (SMILES) | relative growth in counter assay [%]
22 | CN(CCC(=O)N1CCCC1c1cccc(Nc2nccs2)n1)c1ccccc1F (configuration not stated) | 2.31
23 | Cc1cc(C)nc(NS(=O)(=O)c2ccc(NC(=O)C(C)C)cc2)n1 | 2.66
24 | Cc1cc(C)nc(NS(=O)(=O)c2ccc(NC(=S)NC(=O)c3cccnc3)cc2)n1 | 1.06
25 | CCCC(C)C(=O)Nc1ccc(S(=O)(=O)Nc2nccc(C)n2)cc1 (configuration not stated) | -3.64
26 | COc1ccc(S(=O)(=O)Nc2cccc3cn[nH]c23)c(C)c1C | -0.77
27 | Cc1cc(C)nc(NS(=O)(=O)c2ccc(NC(=O)c3cccs3)cc2)n1 | -2.72
28 | CCOC(=O)C(=O)Nc1ccc(S(=O)(=O)Nc2ncccn2)cc1 | 1.3
29 | Cc1nc(/C=C/C(=O)N2CCC(c3cc4ccccc4c(Nc4nccs4)n3)CC2)cs1 | -21.8
30 | COc1ccc(C(=O)Nc2ccc(S(=O)(=O)Nc3nccc(C)n3)cc2)cc1 | -6.7
31 | Cc1cc(C)c(C(=O)Nc2ccc(S(=O)(=O)Nc3cc(C)nc(C)n3)cc2)c(C)c1 | 4.33
32 | Cc1cc(C)nc(NS(=O)(=O)c2ccc(NC(=O)c3ccccc3C)cc2)n1 | 11.1
33 | Cc1cc(NS(=O)(=O)c2ccc(NC(=O)CCCOc3ccc(Cl)cc3)cc2)nc(C)n1 | -1.83
34 | Cc1nc(Nc2cccc(C3CCN(C(=O)C4CC=CCC4)CC3)n2)sc1C (configuration not stated) | 7.52
35 | Cc1cnc(Nc2cccc(C3CCCN3C(=O)c3nccc4ccccc34)n2)s1 (configuration not stated) | -8.57
36 | COc1ccc(OCC(=O)Nc2ccc(S(=O)(=O)Nc3nc(C)cc(C)n3)cc2)cc1 | 1.1
37 | O=C(Nc1ccc(S(=O)(=O)Nc2ncccn2)cc1)c1ccco1 | -2.29
38 | Cc1cc(C)c2[nH]c3nc(SCC(=O)Nc4ccc(Cl)c([N+](=O)[O-])c4)nnc3c2c1 | -15.8
39 | CC(=O)Oc1ccc(N2C(=O)c3ccc(Oc4cccc(N)c4)cc3C2=O)cc1 | 0
40 | Cc1cc(NS(=O)(=O)c2ccc(NC(=O)C(F)(F)F)cc2)nc(C)n1 | 2.14
41 | CCOc1ccccc1C(=O)Nc1ccc(S(=O)(=O)Nc2ccccn2)cc1 | -6.95
42 | Cc1csc(Nc2cccc(C3CCN(C(=O)CO)CC3)n2)n1 | 16.9

Row | Structure (SMILES) | relative growth in counter assay [%]
43 | O=C(O)CCCNc1cccc2c1C(=O)N(C1CCC(=O)NC1=O)C2=O (configuration not stated) | 2.89
44 | Cc1cc(C)nc(NS(=O)(=O)c2ccc(NC(=O)c3ccc(F)cc3)cc2)n1 | 4.49
45 | Cc1cnc(Nc2cccc(C3CN(C(=O)C4(c5ccccc5)CC4)CCO3)n2)s1 (configuration not stated) | -7.66
46 | CC(=O)N1CCCC(c2csc(Nc3ccccn3)n2)C1 (configuration not stated) | 0.33
47 | O=C(COc1ccc(F)cc1)N1CCC(c2cccc(Nc3nccs3)n2)CC1 | 6.47
48 | COc1ccccc1C(=O)Nc1ccc(S(=O)(=O)Nc2ncccn2)cc1 | -2.6
49 | CCC(Oc1ccccc1)C(=O)Nc1ccc(S(=O)(=O)Nc2ncccn2)cc1 (configuration not stated) | 27.4
50 | Cc1ccc(C)c2c1[nH]c1nc(SCC(=O)Nc3ccc(Cl)c(C(F)(F)F)c3)nnc12 | -1.4
51 | Cc1cc(C)nc(NS(=O)(=O)c2ccc(NC(=S)NC(=O)/C=C/c3ccccc3)cc2)n1 | -6.41
52 | Cc1csc(Nc2cccc(C3CCN(C(=O)c4cccnc4)CC3)n2)n1 | 5.19
53 | Cc1ccccc1OCCCC(=O)Nc1ccc(S(=O)(=O)Nc2ncccn2)cc1 | -7.62
54 | Cc1cc(C)nc(NS(=O)(=O)c2ccc(NC(=S)NC(=O)c3ccc(F)c(F)c3)cc2)n1 | -3.6
55 | Cc1ccc(Oc2ccc(N3C(=O)c4ccc(Oc5ccc(N)cc5)cc4C3=O)cc2)cc1C | -6.56
56 | COc1cc(NS(=O)(=O)c2ccc(NC(=O)CCl)cc2)nc(OC)n1 | -11.4
57 | Cc1csc(Nc2cccc(C3CCCN3C(=O)c3cn4cc(Cl)ccc4n3)n2)n1 (configuration not stated) | 22.3
58 | COc1ccc2[nH]c3nc(SCC(=O)Nc4ccc(F)cc4)nnc3c2c1 | -18.8
59 | CCN(CC)C(=O)CN1CCOC(c2cccc(Nc3nc(C)c(C)s3)n2)C1 (configuration not stated) | 19.4
60 | Cc1csc(Nc2cccc(C3CCCN3C(=O)CCCc3ccc(F)cc3)n2)n1 (configuration not stated) | 1.52
61 | Cn1nccc1/C=C/C(=O)N1CCCC(c2csc(Nc3ccccn3)n2)C1 (configuration not stated) | 29
62 | COCc1nc2ccccc2n1CC(=O)N1CCOC(c2cccc(Nc3ncc(C)s3)n2)C1 (configuration not stated) | -6.93
